By MIC is commonly meant the lowest concentration found to suppress growth. Higher therefore signals a less susceptible organism.

Here are results for 21 compounds from ChEMBL document CHEMBL4190388, “Discovery and Optimization of Indolyl-Containing 4-Hydroxy-2-Pyridone Type II DNA Topoisomerase Inhibitors Active against Multidrug Resistant Gram-negative Bacteria” (J Med Chem, 2018).

Converted amounts (≈) assume the structure as drawn.

The test system of this assay is Escherichia coli. As to conditions: BAS849.
Regarding `CCc1c(-c2ccc3c(c2)cc(CNC)n3C)[nH]c(=O)c(C(=O)O)c1O`, the MIC came to 0.13 µg/mL (≈ 0.366 µM).
As to `CCc1c(-c2ccc3c(c2)cc(CNC(C)(C)C)n3C)[nH]c(=O)c(C(=O)O)c1O`, the MIC worked out at 0.13 µg/mL (≈ 0.327 µM).
Compound `CCc1c(-c2ccc3c(c2)c(C)c(C)n3C)[nH]c(=O)c(C(=O)O)c1O` yielded an MIC above 12.5 µg/mL.
For `CCNCc1cc2cc3c(cc2n1C)CCCc1c-3[nH]c(=O)c(C(=O)O)c1O`, the MIC stood at 0.1 µg/mL (≈ 0.262 µM).
Compound `CCc1c(-c2ccc(N(C)C)cc2)[nH]c(=O)c(C(=O)O)c1O` came in with an MIC of 0.03 µg/mL (≈ 0.0992 µM).
As to `CNCc1cc2c3c(ccc2n1C)-c1[nH]c(=O)c(C(=O)O)c(O)c1CCC3`, the MIC came to 6.3 µg/mL (≈ 17.1 µM).
Regarding `CCc1c(-c2ccc3c(c2)cc(C)n3C)[nH]c(=O)c(C(=O)O)c1O`, 0.03 µg/mL (≈ 0.0919 µM) was the least that counted as inhibitory (MIC).
The compound `CCNCc1cc2cc3c(cc2n1C)Cc1c-3[nH]c(=O)c(C(=O)O)c1O` had a minimum inhibitory concentration (MIC) above 12.5 µg/mL.
As for `CCNCc1cc2cc(-c3[nH]c(=O)c(C(=O)O)c(O)c3CC)ccc2n1C`, the figure is 0.1 µg/mL (≈ 0.271 µM); as for `CNCc1cc2cc3c(cc2n1C)CCCc1c-3[nH]c(=O)c(C(=O)O)c1O`, 0.19 µg/mL (≈ 0.517 µM).
With `CCc1c(-c2ccc3c(ccn3C)c2)[nH]c(=O)c(C(=O)O)c1O`, 0.03 µg/mL (≈ 0.0961 µM) was the least that counted as inhibitory (MIC).
With `CCNCc1cc2c3c(ccc2n1C)-c1[nH]c(=O)c(C(=O)O)c(O)c1CCC3`, inhibition of growth (MIC) required 6.3 µg/mL (≈ 16.5 µM).
On to `CCc1c(-c2ccc3c(c2)cc(CN(C)C)n3C)[nH]c(=O)c(C(=O)O)c1O`, for which 0.06 µg/mL (≈ 0.162 µM) was the least that counted as inhibitory (MIC).
Compound `CN(C)Cc1cc2cc(-c3[nH]c(=O)c(C(=O)O)c(O)c3C3CC3)ccc2n1C` came in with an MIC of 3.1 µg/mL (≈ 8.13 µM).
The compound `CCNCc1cc2cc3c(cc2n1C)CCCCc1c-3[nH]c(=O)c(C(=O)O)c1O` came in with an MIC of 0.19 µg/mL (≈ 0.48 µM).
With `CCc1c(-c2ccc3c(c2)cc(CN2CCC2)n3C)[nH]c(=O)c(C(=O)O)c1O`, 0.05 µg/mL (≈ 0.131 µM) was the least that counted as inhibitory (MIC).
For `CCc1c(-c2ccc3c(c2)cc(CN2CCCC2)n3C)[nH]c(=O)c(C(=O)O)c1O`, it took 0.05 µg/mL (≈ 0.126 µM) to inhibit growth (MIC).
The compound `Cc1c(-c2ccc3c(c2)cc(CN(C)C)n3C)[nH]c(=O)c(C(=O)O)c1O` gave an MIC of 0.39 µg/mL (≈ 1.1 µM).
`CCc1c(-c2ccc3c(c2)cc(CNC(C)C)n3C)[nH]c(=O)c(C(=O)O)c1O` gave an MIC of 0.06 µg/mL (≈ 0.156 µM).
As for `CC(C)c1c(-c2ccc3c(c2)cc(CN(C)C)n3C)[nH]c(=O)c(C(=O)O)c1O`, the figure is 0.24 µg/mL (≈ 0.626 µM); as for `CN(C)Cc1cc2cc(-c3cc(O)c(C(=O)O)c(=O)[nH]3)ccc2n1C`, above 12.5 µg/mL.
